Data taken from US20220281915A1, “COMPOSITIONS COMPRISING BOVINE ADRENAL MEDULLA 8-22 (BAM8-22) PEPTIDE ANALOGS AND METHODS OF USE” (OKYO Pharma Limited, priority 2019, published 2022).
At least one compound was matched to its structure with a doubt left. Non-standard residues stand in square brackets, D forms with d. Residues, ends and D or L forms follow the SMILES beside them. No end group written: not given here. *: point of attachment. PEG8 = NCCOCCOCCOCCOCCOCCOCCOCCOCCC(=O)O; Palmitoyl = CCCCCCCCCCCCCCCC(=O)*; 4Pal = N[C@@H](Cc1ccncc1)C(=O)O; Agb = N=C(N)NCC[C@H](N)C(=O)O

Target: human MRGPRX1 receptor (Homo sapiens, UniProt Q96LB2)
Experiment: DiscoverX calcium mobilization cell culture assay, agonist mode (FLIPR Tetra)
Type: cell-based
Details: Table 2 initial screening data, agonist format, peptides
Protocol: DiscoverX® Calcium cell line overexpressing naturally Gq coupled, wildtype human MRGPRX1 receptor was used to detect calcium mobilization in response to agonist stimulation of the receptor. Cells were plated in a 384-well plate and incubated overnight at 37° C. and 5% CO2 to allow the cells to attach and grow. Culture media was removed and replaced with dye loading buffer from the Calcium No WashPLUS detection kit according to the recommended protocol. Cells were incubated with peptides to induce response and calcium mobilization was detected using a FLIPR® Tetra (Molecular Devices, Inc.).
Compound activity was analyzed using Chemical and Biological Information System (CBIS) data analysis suite (ChemInnovation, CA). For agonist mode assays, percentage activity is calculated using the following formula: % Activity=100%×(mean RFU of test sample−mean RFU of vehicle control)/(mean MAX RFU control ligand−mean RFU of vehicle control). […] RFU means relative fluorescence units.

human MRGPRX1 receptor, sequence (Q96LB2 whole entry): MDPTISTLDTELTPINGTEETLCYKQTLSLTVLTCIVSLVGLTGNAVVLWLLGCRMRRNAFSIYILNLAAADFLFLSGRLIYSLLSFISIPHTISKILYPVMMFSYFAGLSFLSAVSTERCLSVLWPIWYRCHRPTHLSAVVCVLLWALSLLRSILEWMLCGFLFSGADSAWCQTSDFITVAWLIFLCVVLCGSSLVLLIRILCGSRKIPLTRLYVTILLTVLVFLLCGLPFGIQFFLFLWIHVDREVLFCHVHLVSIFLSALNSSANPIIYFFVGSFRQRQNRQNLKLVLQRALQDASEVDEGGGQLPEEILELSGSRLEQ

In order of falling EC50:
1. RPEWWMDYQKRY [OK-204, RPEWWMDYQKRY (SEQ ID NO: 6)]  360 pM
2. CCCCCCCCCCCCCCCC(=O)NCCOCCOCCOCCOCCOCCOCCOCCOCCC(=O)N[C@H](C(=O)NCC(=O)N[C@@H](CCCNC(=N)N)C(=O)N1CCC[C@H]1C(=O)N[C@@H](CCC(=O)O)C(=O)N[C@@H](Cc1c[nH]c2ccccc12)C(=O)N[C@@H](Cc1c[nH]c2ccccc12)C(=O)N[C@@H](CCSC)C(=O)N[C@@H](CC(=O)O)C(=O)N[C@@H](Cc1ccc(O)cc1)C(=O)N[C@@H](CCC(N)=O)C(=O)N[C@@H](CCCCN)C(=O)N[C@@H](CCCNC(=N)N)C(=O)N[C@@H](Cc1ccc(O)cc1)C(=O)NCC(=O)O)C(C)C [OK-201, palmitic acid-PEG8-VGRPEWWMDYQKRYG (SEQ ID NO: 21)] ({Palmitoyl-PEG8}-VGRPEWWMDYQKRYG-OH; C-terminus assumed)  40 pM

Same assay, conditions: Table 3 analogs of OK-204, agonist format, peptides with palmitic acid-PEG-8 attached to the N-terminus

In order of falling EC50:
1. CCCCCCCCCCCCCCCC(=O)NCCOCCOCCOCCOCCOCCOCCOCCOCCC(=O)N[C@@H](CC(=O)O)C(=O)N1CCC[C@H]1C(=O)N[C@@H](CCC(=O)O)C(=O)N[C@@H](Cc1c[nH]c2ccccc12)C(=O)N[C@@H](Cc1c[nH]c2ccccc12)C(=O)N[C@@H](CCSC)C(=O)N[C@@H](CC(=O)O)C(=O)N[C@@H](Cc1ccncc1)C(=O)N[C@@H](CCC(N)=O)C(=O)N[C@@H](CCCCN)C(=O)N[C@@H](CCCNC(=N)N)C(=O)N[C@H](Cc1ccc(O)cc1)C(=O)O [OK-212, DPEWWMD-4-Pal-QKR-dY (SEQ ID NO: 11)] ({Palmitoyl-PEG8}-DPEWWMD[4Pal]QKR[dY]-OH; C-terminus assumed)  2290 pM
2. CCCCCCCCCCCCCCCC(=O)NCCOCCOCCOCCOCCOCCOCCOCCOCCC(=O)N[C@@H](CC(=O)O)C(=O)N1CCC[C@H]1C(=O)N[C@@H](CCC(=O)O)C(=O)N[C@@H](Cc1c[nH]c2ccccc12)C(=O)N[C@@H](Cc1c[nH]c2ccccc12)C(=O)N[C@@H](C)C(=O)N[C@@H](CC(=O)O)C(=O)N[C@@H](Cc1ccncc1)C(=O)N[C@@H](CCC(N)=O)C(=O)N[C@@H](CCCCN)C(=O)N[C@@H](CCCNC(=N)N)C(=O)N[C@H](Cc1ccc(O)cc1)C(=O)O [OK-215, DPEWWAD-4-Pal-QKR-dY (SEQ ID NO: 14)] ({Palmitoyl-PEG8}-DPEWWAD[4Pal]QKR[dY]-OH; C-terminus assumed)  1390 pM
3. CCCCCCCCCCCCCCCC(=O)NCCOCCOCCOCCOCCOCCOCCOCCOCCC(=O)N[C@@H](CC(N)=O)C(=O)N1CCC[C@H]1C(=O)N[C@@H](CC(=O)O)C(=O)N[C@@H](Cc1c[nH]c2ccccc12)C(=O)N[C@@H](Cc1c[nH]c2ccccc12)C(=O)N[C@@H](CCSC)C(=O)N[C@@H](CC(=O)O)C(=O)N[C@@H](Cc1ccccc1)C(=O)N[C@@H](CCC(N)=O)C(=O)N[C@@H](CCCCN)C(=O)N[C@@H](CCCNC(=N)N)C(=O)N[C@H](CO)C(=O)O [OK-211, NPDWWMDFQKR-dS (SEQ ID NO: 9)] ({Palmitoyl-PEG8}-NPDWWMDFQKR[dS]-OH; C-terminus assumed)  1190 pM
4. CCCCCCCCCCCCCCCC(=O)NCCOCCOCCOCCOCCOCCOCCOCCOCCC(=O)N[C@@H](CCNC(=N)N)C(=O)N1CCC[C@H]1C(=O)N[C@@H](CCC(=O)O)C(=O)N[C@@H](Cc1c[nH]c2ccccc12)C(=O)N[C@@H](Cc1c[nH]c2ccccc12)C(=O)N[C@@H](CCSC)C(=O)N[C@@H](CC(=O)O)C(=O)N[C@@H](Cc1c[nH]c2ccccc12)C(=O)N[C@@H](CCC(N)=O)C(=O)N[C@@H](CCCCN)C(=O)N[C@@H](CCCNC(=N)N)C(=O)N[C@H](Cc1ccc(O)cc1)C(=O)O [OK-214, NorR-PEWWMDWQKR-dY (SEQ ID NO: 47)] ({Palmitoyl-PEG8}-[Agb]PEWWMDWQKR[dY]-OH; C-terminus assumed)  240 pM
5. CCCCCCCCCCCCCCCC(=O)NCCOCCOCCOCCOCCOCCOCCOCCOCCC(=O)N[C@@H](CCC(=O)O)C(=O)N[C@@H](Cc1c[nH]c2ccccc12)C(=O)N[C@@H](Cc1c[nH]c2ccccc12)C(=O)N[C@@H](CCSC)C(=O)N[C@@H](CC(=O)O)C(=O)N[C@@H](Cc1ccccc1)C(=O)N[C@@H](CCC(N)=O)C(=O)N[C@@H](CCCCN)C(=O)N[C@@H](CCCNC(=N)N)C(=O)N[C@H](Cc1ccc(O)cc1)C(=O)O [OK-208, EWWMDFQKR-dY (SEQ ID NO: 18)] ({Palmitoyl-PEG8}-EWWMDFQKR[dY]-OH; C-terminus assumed)  100 pM
6. CCCCCCCCCCCCCCCC(=O)NCCOCCOCCOCCOCCOCCOCCOCCOCCC(=O)N[C@@H](CC(N)=O)C(=O)N1CCC[C@H]1C(=O)N[C@@H](CC(=O)O)C(=O)N[C@@H](Cc1c[nH]c2ccccc12)C(=O)N[C@@H](Cc1c[nH]c2ccccc12)C(=O)N[C@@H](CCSC)C(=O)N[C@@H](CCC(=O)O)C(=O)N[C@@H](Cc1ccc(O)cc1)C(=O)N[C@@H](CCC(N)=O)C(=O)N[C@@H](CCCCN)C(=O)N[C@@H](CCCNC(=N)N)C(=O)N[C@H](Cc1ccc(O)cc1)C(=O)O [OK-210, NPDWWMEYQKR-dY (SEQ ID NO: 8)] ({Palmitoyl-PEG8}-NPDWWMEYQKR[dY]-OH; C-terminus assumed)  80 pM
7. RPEWWMDYQKRY [OK-204, RPEWWMDYQKRY (SEQ ID NO: 6)]  80 pM
8. CCCCCCCCCCCCCCCC(=O)NCCOCCOCCOCCOCCOCCOCCOCCOCCC(=O)N[C@H](CC(N)=O)C(=O)N1CCC[C@H]1C(=O)N[C@@H](CCC(=O)O)C(=O)N[C@@H](Cc1c[nH]c2ccccc12)C(=O)N[C@@H](Cc1c[nH]c2ccccc12)C(=O)N[C@@H](CCSC)C(=O)N[C@@H](CC(=O)O)C(=O)N[C@@H](Cc1ccc(O)cc1)C(=O)N[C@@H](CCC(N)=O)C(=O)N[C@@H](CCCCN)C(=O)N[C@@H](CCCNC(=N)N)C(=O)N[C@H](Cc1ccc(O)cc1)C(=O)O [OK-209, dN-PEWWMDYQKR-dY (SEQ ID NO: 7)] ({Palmitoyl-PEG8}-[dN]PEWWMDYQKR[dY]-OH; C-terminus assumed)  70 pM
9. CCCCCCCCCCCCCCCC(=O)NCCOCCOCCOCCOCCOCCOCCOCCOCCC(=O)N1CCC[C@H]1C(=O)N[C@@H](CCC(=O)O)C(=O)N[C@@H](Cc1c[nH]c2ccccc12)C(=O)N[C@@H](Cc1c[nH]c2ccccc12)C(=O)N[C@@H](CCSC)C(=O)N[C@@H](CC(=O)O)C(=O)N[C@@H](Cc1ccc(O)cc1)C(=O)N[C@@H](CCC(N)=O)C(=O)N[C@@H](CCCCN)C(=O)N[C@@H](CCCNC(=N)N)C(=O)N[C@H](Cc1ccc(O)cc1)C(=O)O [OK-207, PEWWMDYQKR-dY (SEQ ID NO: 17)] ({Palmitoyl-PEG8}-PEWWMDYQKR[dY]-OH; C-terminus assumed)  60 pM
10. CCCCCCCCCCCCCCCC(=O)NCCOCCOCCOCCOCCOCCOCCOCCOCCC(=O)N[C@@H](CCNC(=N)N)C(=O)N1CCC[C@H]1C(=O)N[C@@H](CCC(=O)O)C(=O)N[C@@H](Cc1c[nH]c2ccccc12)C(=O)N[C@@H](Cc1c[nH]c2ccccc12)C(=O)N[C@@H](CCSC)C(=O)N[C@@H](CC(=O)O)C(=O)N[C@@H](Cc1ccc(O)cc1)C(=O)N[C@@H](CCC(N)=O)C(=O)N[C@@H](CCCCN)C(=O)N[C@@H](CCCNC(=N)N)C(=O)N[C@H](Cc1ccc(O)cc1)C(=O)O [OK-213, NorR-PEWWMDYQKR-dY (SEQ ID NO: 46)] ({Palmitoyl-PEG8}-[Agb]PEWWMDYQKR[dY]-OH; C-terminus assumed)  60 pM
